Screen size: about 390,000 compounds; about 17,000 (4.4%) were called active. Inconclusive means that the source gave no clear call. Such entries were picked first, then a sample of the others. Calls come from the whole dose curve; as a rule, active = well fitted inhibition curve with a large enough effect; inconclusive = small, poorly fitted or top-dose-only effect; inactive = no such curve, though single readings can be large or run the other way. Where the call is inconclusive, the potency comes from a doubtful curve fit.
Biological target: Lysine-specific demethylase 4A (Homo sapiens) (UniProt O75164)
Experiment: qHTS Assay for Inhibitors of JMJD2A-Tudor Domain; note: nearly all actives have a fitted effect of over 50% in size
Conditions: AlphaScreen JMJD2A-Tudor / H3K4me3 peptide binding; activity change, negative = inhibition: at 114 µM (top of the series)
% is set by controls: 0 for no effect and ±100 for the full control effect; potency is the fitted concentration of half-maximal effect; tags give direction and shape of the fitted curve.

Sequence of UniProt O75164 (O75164 whole entry, looked up, the tested form may be a part): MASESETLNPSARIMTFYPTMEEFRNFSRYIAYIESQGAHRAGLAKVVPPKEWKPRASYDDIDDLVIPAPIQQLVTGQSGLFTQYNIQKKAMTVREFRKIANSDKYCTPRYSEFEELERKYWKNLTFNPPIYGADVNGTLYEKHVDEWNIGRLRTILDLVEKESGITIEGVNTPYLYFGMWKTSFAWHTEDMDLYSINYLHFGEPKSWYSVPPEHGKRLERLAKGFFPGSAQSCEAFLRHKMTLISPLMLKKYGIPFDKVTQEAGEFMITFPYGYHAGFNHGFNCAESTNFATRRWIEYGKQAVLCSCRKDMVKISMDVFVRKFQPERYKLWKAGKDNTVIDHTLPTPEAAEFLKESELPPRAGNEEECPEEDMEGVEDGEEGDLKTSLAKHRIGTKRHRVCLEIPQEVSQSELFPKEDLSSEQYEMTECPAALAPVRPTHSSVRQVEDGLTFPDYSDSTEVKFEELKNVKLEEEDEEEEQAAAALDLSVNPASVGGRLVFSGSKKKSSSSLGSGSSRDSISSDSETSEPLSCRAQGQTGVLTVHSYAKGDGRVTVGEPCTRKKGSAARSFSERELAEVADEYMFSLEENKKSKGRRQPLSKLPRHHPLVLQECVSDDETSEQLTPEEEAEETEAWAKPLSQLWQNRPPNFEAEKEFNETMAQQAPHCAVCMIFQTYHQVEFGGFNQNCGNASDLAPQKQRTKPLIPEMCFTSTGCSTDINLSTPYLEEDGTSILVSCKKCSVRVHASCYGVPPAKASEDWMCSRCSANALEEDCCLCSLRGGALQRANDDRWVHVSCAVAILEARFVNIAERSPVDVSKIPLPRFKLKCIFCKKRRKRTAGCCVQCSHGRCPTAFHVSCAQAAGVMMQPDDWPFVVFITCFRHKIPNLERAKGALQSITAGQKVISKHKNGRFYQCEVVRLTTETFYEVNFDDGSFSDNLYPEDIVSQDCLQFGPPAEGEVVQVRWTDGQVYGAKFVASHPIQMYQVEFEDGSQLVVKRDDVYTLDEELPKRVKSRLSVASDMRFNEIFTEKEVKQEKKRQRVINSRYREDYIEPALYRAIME

Activity change, negative = inhibition, inactive:
COc1ccc(CCNC(=O)CSc2nnc(Cn3c(=O)sc4ccccc43)n2C)cc1OC -17.2%
Cc1cc(NC(=O)c2cccs2)cc(-c2nc3cc(Cl)ccc3o2)c1O -11.2%
Cc1ccc(NC(=O)c2ccc(NC(=O)N3CCSc4nc(C)cc(C)c43)cc2)c(Cl)c1 -2.76%
CN1C(=O)C(O)(c2sc(N)nc2-c2ccccc2)c2ccccc21 (stereo unspecified) -16.4%
CCOC(=O)C1=C(C)N(C)C(C)=C(C(=O)OCC)C1c1ccsc1 10.3%
CCc1ccc(C(=O)NNc2ccc(F)cc2)cc1 -22.3%
Cc1cc(NS(=O)(=O)c2ccc(NC(=O)CCCC(=O)O)cc2)nc(C)n1 -16.3%
Cc1oc(-c2ccccc2Cl)nc1CS(=O)(=O)CC(=O)N1CCOCC1 -9.15%
Cc1ccc(SCC(=O)Nc2ccc(S(=O)(=O)Nc3ncccn3)cc2)cc1 -21.7%
CC(=O)OC(C[N+]1(C)CCCCCC1)c1ccccc1 (stereo unspecified) -6.38%
Cc1cccn2cc(CNS(=O)(=O)c3ccc4ccccc4c3)nc12 -8.76%
C/C=C1\COC(C(=O)NCc2cccc(OC)c2OC)(C(F)(F)F)C=C1C=C(C)C (stereo unspecified) -4.14%
COc1ccc(CC(=O)Nc2cc(S(=O)(=O)N3CCOCC3)ccc2N2CCOCC2)cc1OC -9.12%
CCC(C(=O)Nc1cc(Cl)ccc1OC)n1nc(-c2ccccc2)ccc1=O (stereo unspecified) -22%
CCOC(=O)C1=C(CS(=O)(=O)c2cccc(C(F)(F)F)c2)NC(=O)NC1c1cccc(OC)c1 (stereo unspecified) -11.6%
Cc1ccc(Cl)cc1N1CCN(CC(O)COC(C)C)CC1 (stereo unspecified) -9.36%
CCCNC(=O)CCn1c(=S)oc2ccccc21 -19.1% [at 11.4 µM]
CCOc1ccccc1NC(=O)CSc1nc2c(oc3ccccc32)c(=O)n1-c1ccc(C)c(C)c1 -18.2%
CCc1ccc(OCc2n[nH]c(=S)n2C(C)CCCC(C)C)cc1 (stereo unspecified) -21.9%

Potency, active:
CCOC(=O)C1=C(C)N=c2s/c(=C\c3ccc(OC(C)=O)c(OCC)c3)c(=O)n2C1/C=C/c1ccccc1 (stereo unspecified) 44.7 µM
CCCc1ccc(C2Sc3ccccc3NC3=C2C(=O)c2ccccc23)cc1 (stereo unspecified) 15.8 µM
O=C(CSc1n[nH]c(-c2ccncc2)n1)NC1CCS(=O)(=O)C1 (stereo unspecified) 89.1 µM
CC1CN2C(c3ccc([N+](=O)[O-])cc3)=CSC2=N1 (stereo unspecified) 79.4 µM
NC(=O)C1CCN(C2=C(NS(=O)(=O)c3ccc(Br)cc3)C(=O)c3ccccc3C2=O)CC1 79.4 µM
CC(C)(C)C(=O)c1sc(Nc2ccccc2)nc1N 56.2 µM
Cc1ccc(/C=N/N2CCN(Cc3cccc4ccccc34)CC2)o1 50.1 µM
C[C@H]1CCC/C=C/[C@@H]2C[C@H](O)C[C@H]2[C@H](O)[C@H](S(=O)c2ccc(O)cc2)CC(=O)O1 (stereo partly specified) 39.8 µM
CCN(CC)C1=CC(=O)OC12CCCCC2 31.6 µM
Cc1ccc(/C=C2/C(=O)ON=C2c2ccccc2)o1 79.4 µM
CC1CCCN(CCCOc2ccc([N+](=O)[O-])cc2)C1 (stereo unspecified) 22.4 µM
Cc1cc(OCCCCNC(C)C)cc(C(C)C)c1 17.8 µM
C=CCc1cc(Cl)ccc1OCCOCCN(C)C 3.55 µM
Cc1ccc(S(=O)(=O)N/N=C2/CCCCC2C2CCCCC2)cc1[N+](=O)[O-] (stereo unspecified) 28.2 µM
Cc1ccccc1N/N=C/c1sc(=O)n(Cc2cccc(C(=O)O)c2)c1Cl 10 µM
Cc1ccc(C(=O)O)cc1-c1ccc(/C=C2/NC(=O)N(c3ccccc3)C2=O)o1 50.1 µM
N#Cc1c(NC(=O)c2ccco2)sc2c1CCC2 50.1 µM

Potency, inconclusive:
CCOc1ccc(C2C(C(=O)c3ccco3)=C(O)C(=O)N2Cc2cccnc2)cc1 (stereo unspecified) 89.1 µM [inhibitor, single point]
CC1CC2=C(NC(=S)NC2c2ccccc2F)/C(=C/c2ccccc2F)C1 (stereo unspecified) 50.1 µM [inhibitor, partial curve, poor fit]
O=C(O)c1nccnc1C(=O)Nc1ccccc1N1CCOCC1 35.5 µM [inhibitor, single point]
O=C(C1CCCN(c2ncnc3c2nc2n3CCCCC2)C1)N1CCN(c2cccc(Cl)c2)CC1 (stereo unspecified) 44.7 µM [inhibitor, partial curve]
COc1ccc(C[C@H]2CN3C(=NC[C@@H]3Cc3ccc(O)cc3)N2CCNC(=O)c2ccc(C)c(Br)c2)cc1 56.2 µM [inhibitor, partial curve]
O=C(NCCNC(=O)c1ccccn1)c1ccc(F)cc1 22.4 µM [inhibitor, single point]
Cc1nnc(-c2cccc(Br)c2)c2cn(-c3ccccc3)nc12 89.1 µM [inhibitor, partial curve]
O=C(c1ccco1)[C@@H]1[C@@H]2C(=O)N(c3ccc(F)cc3)C(=O)[C@@H]2[C@H]2C=Cc3ccccc3N21 79.4 µM [inhibitor, partial curve]
COc1ccc(N2CCN(CCNC(=O)CCN3C(=O)COc4ccccc43)CC2)cc1 56.2 µM [inhibitor, partial curve]
CCOc1ccccc1CNS(=O)(=O)c1ccc(-c2coc(C)n2)cc1 4.47 µM [inhibitor, partial curve, poor fit]
Cc1cccc(C(c2sc3nc(-c4ccco4)nn3c2O)N2CCN(c3ccccc3)CC2)c1 (stereo unspecified) 50.1 µM [inhibitor, partial curve]
C=CCCC(=O)Nc1nc(C)c(-c2csc(Nc3cccc(OC)c3)n2)s1 79.4 µM [inhibitor, partial curve]
C=CCOC(=O)C(C#N)c1nc2ccccc2nc1N1CCN(Cc2ccccc2)CC1 (stereo unspecified) 7.08 µM [inhibitor, full curve, poor fit]
Cc1ccc(NNC(=O)c2sccc2Cl)c(C)c1 31.6 µM [inhibitor, full curve]
COc1ccc(CCNC(=O)COC(=O)c2ccccc2NCCO)cc1OC 39.8 µM [inhibitor, single point]
Cc1ccc(-n2c(=O)[nH]c3c(C(N)=O)nc(-c4ccc(C)o4)nc32)cc1 50.1 µM [inhibitor, partial curve]
CC(C)C[C@H](NC(=O)N1CCN(c2ccccc2)CC1)C(=O)O 89.1 µM [inhibitor, single point]
Cc1ccc(NC(=O)c2ccc(NCCN)c([N+](=O)[O-])c2)cc1Cl 44.7 µM [inhibitor, partial curve]
C[C@@H]1CN([C@H](C)CO)C(=O)Cc2cc(NS(=O)(=O)c3ccc(Cl)cc3)ccc2O[C@H]1CN(C)Cc1ccc(C(F)(F)F)cc1 44.7 µM [inhibitor, full curve]
Nc1ccn([C@@H]2O[C@H](COS(=O)(=O)O)[C@@H](O)[C@H]2O)c(=O)n1 100 µM [inhibitor, single point]
COc1ccccc1CN(Cc1ccco1)c1cnc(S(C)(=O)=O)nc1C(=O)Nc1cc(C)ccc1C 44.7 µM [inhibitor, full curve, poor fit]
CCOc1ccc(Nc2nc3cc(S(=O)(=O)CC)ccc3o2)cc1 22.4 µM [inhibitor, partial curve]
COc1cccc(C2c3cc4c(cc3OC(NNC(N)=O)C2C)OCO4)c1O (stereo unspecified) 56.2 µM [inhibitor, partial curve]
Cc1n(C)c2cc(Cl)ccc2[n+]1Cc1ccccc1 35.5 µM [inhibitor, single point]
O=C(N/N=C/c1ccc(-c2cccc([N+](=O)[O-])c2)o1)c1ccccc1O 44.7 µM [inhibitor, partial curve]
COc1ccc(-c2cn(Cc3ccc(C(=O)NCc4ccc(C)cc4)cc3)c(C(C)N)n2)cc1 (stereo unspecified) 17.8 µM [inhibitor, full curve]
Cc1[nH]n(-c2ccccc2)c(=O)c1N=Nc1cccc([N+](=O)[O-])c1 5.62 µM [inhibitor, full curve]
CCN(C(=O)COC(=O)c1ccc([N+](=O)[O-])o1)c1cccc2ccccc12 63.1 µM [inhibitor, partial curve, poor fit]
Cc1ccc(C)n1-c1sc2c(c1C#N)CCC(C)C2 (stereo unspecified) 15.8 µM [inhibitor, partial curve, poor fit]
Fc1ccc(C(Nc2ccccn2)c2c[nH]c3ccccc23)cc1 (stereo unspecified) 28.2 µM [inhibitor, partial curve]
COc1cc(OC)c(OC)cc1/C=C/c1nc2cc3ccccc3cc2c(=O)n1-c1ccc(Cl)cc1 31.6 µM [inhibitor, partial curve]
N#C/C(=C\c1ccc(-c2cccc([N+](=O)[O-])c2)o1)C(=O)N1CCOCC1 28.2 µM [inhibitor, partial curve, poor fit]
CCN(CC)CCN(C(=O)c1ccc(S(=O)(=O)N(C)C2CCCCC2)cc1)c1nc2ccc(OC)cc2s1 44.7 µM [inhibitor, partial curve]
Cc1ccc2cc(C=C(C#N)C#N)c(N3CCCCC3)nc2c1 50.1 µM [inhibitor, partial curve]
O=C1N(Cc2cccc(Cl)c2)C[C@@H]2C[C@@H](c3c[nH]c4ccccc34)N3CCC[C@@]123 56.2 µM [inhibitor, partial curve]
